Source: paper PMC4336329 (PLoS ONE, 2015)
The campaign covered roughly 310,000 compounds. About 14,000 (4.5%) showed an effect of 50% or more. Effects have a minus sign here. The list shows a part of the results.

Biological target: human ether-à-go-go-related gene (hERG) potassium channel (human, UniProt Q12809)
Test: primary screen, population patch clamp on CHO cells stably expressing hERG
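Also: peak tail current of the secondary pulse compared with the same well before compound.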

Chain of human ether-à-go-go-related gene (hERG) potassium channel (Q12809 whole entry, looked up): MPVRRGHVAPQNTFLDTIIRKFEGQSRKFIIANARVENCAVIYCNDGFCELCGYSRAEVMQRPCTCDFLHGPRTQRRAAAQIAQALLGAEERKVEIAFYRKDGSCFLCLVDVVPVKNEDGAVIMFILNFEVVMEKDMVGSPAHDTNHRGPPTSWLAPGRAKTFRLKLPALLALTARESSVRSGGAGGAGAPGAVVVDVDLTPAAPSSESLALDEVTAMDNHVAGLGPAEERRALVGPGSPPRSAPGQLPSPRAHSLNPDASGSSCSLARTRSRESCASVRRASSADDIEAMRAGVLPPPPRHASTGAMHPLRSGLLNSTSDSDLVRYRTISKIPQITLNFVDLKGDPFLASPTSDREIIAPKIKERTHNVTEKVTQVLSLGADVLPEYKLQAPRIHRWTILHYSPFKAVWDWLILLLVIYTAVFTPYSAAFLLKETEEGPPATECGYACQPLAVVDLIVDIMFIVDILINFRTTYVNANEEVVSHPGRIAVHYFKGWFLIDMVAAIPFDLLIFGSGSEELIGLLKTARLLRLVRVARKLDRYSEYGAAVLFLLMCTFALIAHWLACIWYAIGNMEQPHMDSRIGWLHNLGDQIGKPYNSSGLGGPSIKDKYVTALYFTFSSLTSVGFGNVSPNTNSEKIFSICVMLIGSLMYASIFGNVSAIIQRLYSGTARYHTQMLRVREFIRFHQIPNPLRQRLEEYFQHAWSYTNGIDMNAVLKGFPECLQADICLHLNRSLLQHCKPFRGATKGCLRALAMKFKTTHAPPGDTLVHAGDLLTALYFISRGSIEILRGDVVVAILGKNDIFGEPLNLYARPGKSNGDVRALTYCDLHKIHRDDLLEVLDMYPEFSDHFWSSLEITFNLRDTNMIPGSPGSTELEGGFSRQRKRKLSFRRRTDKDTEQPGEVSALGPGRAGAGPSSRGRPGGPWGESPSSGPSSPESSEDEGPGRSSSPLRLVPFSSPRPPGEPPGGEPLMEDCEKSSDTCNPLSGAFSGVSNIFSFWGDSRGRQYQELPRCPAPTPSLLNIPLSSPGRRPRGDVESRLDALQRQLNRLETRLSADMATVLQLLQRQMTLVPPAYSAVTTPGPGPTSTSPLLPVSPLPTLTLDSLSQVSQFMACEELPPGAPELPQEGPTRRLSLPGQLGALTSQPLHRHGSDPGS

| Structure (SMILES) | hERG current change (%, negative = inhibition) at 10uM [%] |
| --- | --- |
| COc1ccc(C(C)NC(=S)NC2CCCC2)cc1OC (centres unmarked) | 17.8 |
| CCc1cccc(NC(=O)CCCn2c(=O)[nH]c3ccsc3c2=O)c1 | 32.3 |
| O=C(CSCc1cc(=O)[nH][nH]1)Nc1ccc(F)cc1 | 22.8 |
| COC(=O)c1sc2cc(=O)n(-c3cccc(C(F)(F)F)c3)nc2c1O | 5.09 |
| CCN(CC)C(=O)c1sc(NC(=O)c2ccncc2)c(C(=O)OC)c1C | -11.7 |
| O=C(CSc1nc2ccccc2c(=O)n1CC1CCCO1)Nc1ccc(F)cc1 (centres unmarked) | -12.1 |
| CN(C(=O)c1ccncc1)C1CCCCC1 | 18 |
| COc1cccc(/C=C2/C(=O)NN(c3ccc(F)cc3)C2=O)c1 | 8.59 |
| CNC(=O)c1c(NC(=O)CCS(=O)(=O)c2ccccc2)sc(C)c1C | 0.0126 |
| CNC(=O)NNC(=O)c1csc(Cc2c(Cl)sc3ccc(Cl)cc23)n1 | -52.1 |
| COC(=O)c1c(C)[nH]c(O)c1C=Nc1ccc(Oc2ccccc2)cc1 | 7.17 |
| Cc1ccc(S(=O)(=O)NCc2ccc(C(=O)N3CCN(c4ccc([N+](=O)[O-])cc4)CC3)cc2)cc1 | -70.7 |
| CCCCN1C(=O)c2ccc(C(=O)Nc3ccc(C)c(S(=O)(=O)N(C)C)c3)cc2C1=O | -19.1 |
| C/C(=N\NC(=O)c1nn(C)c(C)c1Br)c1ccc(NC(=O)c2ccccc2F)cc1 | 15.4 |
| Fc1ccccc1C(c1nnnn1Cc1ccc2c(c1)OCO2)N1CCN(Cc2ccccc2)CC1 (centres unmarked) | -55.3 |
| Cc1ccc2c(c1)=C/C(=C\c1c(O)[nH]c(=S)[nH]c1=O)C(=O)N=2 | 5.06 |
| CCc1noc(C)c1C(=O)NNC(=O)c1ccc(N(CC)CC)cc1 | -3.19 |
| O=C(N/N=C/c1ccccn1)c1cc([N+](=O)[O-])cc([N+](=O)[O-])c1 | 4.99 |
| Cc1cccc(C(C)C)c1NC(=O)c1ccc(COc2ccc3c(C)cc(=O)oc3c2)cc1 | 12.3 |
| CC(Sc1nnnn1C)C(=O)NC1CCCc2ccccc21 (centres unmarked) | 18.7 |
| Cc1nonc1NC(=O)c1oc2ccccc2c1C | 14.6 |
| C=CCc1cc(Cl)ccc1OCCNCCOC.O=C(O)C(=O)O | -43.3 |

| Structure (SMILES) | hERG current change (%, negative = inhibition) at 10uM [%] |
| --- | --- |
| O=C1CC(N2CCN(c3ccc(C(=O)c4ccc(F)cc4)cc3)CC2)C(=O)N1 (centres unmarked) | -33.4 |
| O=C(Cc1ccc(F)cc1)N(c1ccccc1)C1C=CS(=O)(=O)C1 (centres unmarked) | -20.6 |
| CCCn1c(SCC(=O)NC2CCCC2)nnc1C(C)C | 7.68 |
| COCc1nc2ccccc2n1CCc1ccccc1 | -33.6 |
| Cc1ccc(-n2c(=O)cc(N3CCC(C)CC3)[nH]c2=O)cc1 | 2.19 |
| CCc1ccc(C2CC(=O)N3CN(c4ccccc4)CSC3=C2C#N)cc1 (centres unmarked) | 17.4 |
| Cc1cc(C)n(CC(=O)Nc2ccc(N3CCOCC3)c(Cl)c2)c(=O)c1C#N | 2.33 |
| N#C/C(=C\c1ccc(O)c(O)c1)C(=O)NCCCc1ccccc1 | -1.59 |
| CC(c1ccco1)N(C(=O)COc1ccccc1[N+](=O)[O-])c1ccccn1 (centres unmarked) | -3.94 |
| CCCOc1cccc(C2/C(=C(/O)c3ccc(F)cc3)C(=O)C(=O)N2CCN(C)C)c1 (centres unmarked) | 18.8 |
| CCN(CC)CCN(C(=O)c1ccc2c(c1)OCCO2)c1nc2c(Cl)cccc2s1.Cl | -54.7 |
| COc1cc(C)c(S(=O)(=O)NOCc2ccc([N+](=O)[O-])cc2)c(C)c1C | 8.43 |
| COc1ccccc1CC(=O)NCCCc1ccccc1 | 1.29 |
| CN1C(=O)C(O)(CC(=O)c2ccccn2)c2cc(Br)ccc21 (centres unmarked) | 2.31 |
| CN(C(=O)c1cccc(C(F)(F)F)c1)C1CCCc2ccccc21 (centres unmarked) | -26.9 |
| Cc1cccc(C)c1-n1nnnc1C(C)(C)N1CCN(N=O)CC1 | 14.7 |
| Cc1nnc2ccc(-c3ccc(NS(=O)(=O)c4ccccc4[N+](=O)[O-])cc3)nn12 | 0.245 |
| COc1ccc(-n2c(SCC(=O)Nc3ccccc3OC)nc(O)cc2=O)cc1 | 16 |
| O=C(OCc1ccccc1)/C(=C/c1ccccc1Cl)NC(=O)c1ccco1 | 2.13 |
| Cc1onc(-c2ccccc2)c1CNC(=O)Nc1ccc(F)cc1F | 0.557 |
| CCOC(=O)CN1C(=O)C(Sc2n[nH]c(-c3ccccc3)n2)CCc2ccccc21 (centres unmarked) | -19.9 |
| C#CCOCCOCCOCCNc1nc(N2CCN(C(=O)[C@H]([C@@H](C)CC)n3cc(CCCC[NH3+])nn3)CC2)nc(N2CCN(C(=O)[C@H](CCCC[NH3+])n3cc(CCCC)nn3)CC2)n1.[Cl-] | 8.1 |

| Structure (SMILES) | hERG current change (%, negative = inhibition) at 10uM [%] |
| --- | --- |
| O=S(=O)(c1cnc[nH]1)N1CCN(c2ccccc2)CC1 | 14 |
| CCN(CC)C(=O)COc1ccc2c3c(c(=O)oc2c1C)CCCC3 | 1.54 |
| CSCC[C@H](NC(=O)[C@@H]1Cc2ccccc2CN1)C(=O)Nc1ccc2c(c1)OCCO2 | -65.5 |
| CCOC(=O)C1=C(N)OC2=C(C(=O)CC(C)(C)C2)C1c1cc(CSc2nnnn2C)cs1 (centres unmarked) | -29.7 |
| COc1ccc(C2(c3ccc(OC)cc3)NC(=O)N(Cn3nnc4ccccc4c3=O)C2=O)cc1 | -39.7 |
| CC(=O)c1cccc(NC(=O)c2sc3nc4n(c(=O)c3c2C)CCCC4)c1 | 4.65 |
| CN(c1ccc(OCC(=O)O)cc1)S(=O)(=O)c1ccc2ccccc2c1 | 16.1 |
| COCCNC(=O)CSc1nc2cc3c(cc2c(=O)n1CCCC(=O)NCc1ccc(OC)cc1)OCO3 | -4.38 |
| COc1cccc2sc(N(CCN(C)C)C(=O)c3ccc4c(c3)CCCC4)nc12.Cl | -66.7 |
| O=C(COC(=O)c1ccc(O)cc1)NCCC1=CCCCC1 | -8.6 |
| CN1C(=O)c2cccc(NCCCN3C(=O)c4ccccc4C3=O)c2C1=O | 5.16 |
| CCOC(=O)CC1(C)OCC(C[N+]2(C)CCCCC2)O1.[I-] (centres unmarked) | -16.5 |
| C=C(C)c1cccc(C(C)(C)NC(=O)N2CCN(C)CC2)c1 | 11.1 |
| CCn1cc(C(=O)O)c(=O)c2cc(F)c(N3CCN(S(=O)(=O)c4ccc(NC(=O)OC)cc4)CC3)cc21 | 21.8 |
| O=C1NC(=O)C2(CCc3ccccc32)N1 (centres unmarked) | 5.19 |
| CCC(=O)Nc1cccc(C2=NOC3(C2)C[C@@H](C(N)=O)N(C(=O)CC)C3)c1 (some centres unmarked) | 15.2 |
| CC(=O)Oc1ccc(/C=C2/CCc3ccccc3C2=O)cc1 | 3.78 |
| CC(=O)c1nc2ccccc2n1Cc1ccccc1 | -2.37 |
| O=C(NCCN1CCOCC1)N1c2ccccc2Sc2ccccc21 | 6.51 |
| COc1ccccc1N1CCN(S(=O)(=O)c2ccc(-c3cnc(C4CC4)o3)cc2)CC1 | 6.99 |
| Cc1cc(=O)n2nc(N3CCCC(C(=O)N4CCN(c5ccccc5)CC4)C3)sc2n1 (centres unmarked) | -53.5 |
| CCCCC12CN3CC(C)(CN(C1)C31C(=O)N(C)c3ccc(C)cc31)C2=O (centres unmarked) | -3.75 |

| Structure (SMILES) | hERG current change (%, negative = inhibition) at 10uM [%] |
| --- | --- |
| O=C(CSc1nnnn1-c1ccccc1)Nc1ccc(N2CCOCC2)cc1 | -5.75 |
| COc1cc(CCC(=O)OCC(=O)Nc2nc(C)c(Cl)cc2Cl)cc(OC)c1OC | -16.1 |
| Brc1ccc(CN2CCCCCC2)cc1 | -30.3 |
| O=C(NNC(=O)c1ccc(Br)s1)c1csc(N2CCOCC2)n1 | 7.54 |
| CCC(C)c1ccccc1N1CC(C(=O)Nc2ccc(S(=O)(=O)N3CCOCC3)cc2)CC1=O (centres unmarked) | -9.78 |
| CCCN1C(=O)c2ccc(C(=O)Nc3nccs3)cc2C1=O | -13.6 |
| Cl.c1coc(CNc2nc(N3CCCCC3)nc3ccccc23)c1 | -77.5 |
| CCOc1cccc(C(=O)Nc2cccc(NC(=O)c3ccco3)c2)c1 | -37.8 |
| COc1nc(-c2ccccc2)ccc1-c1noc(-c2cccnc2)n1 | 5.15 |
| Cc1ccc(Cl)c2c1NC(=O)C2(O)CC(=O)c1ccc(Br)cc1 (centres unmarked) | -5.09 |
| COc1ccc(Cl)cc1Nc1nc(NCCO)nc(N2CCCC2)n1 | 8.89 |
| COc1ccc(-c2noc(Cc3ccccc3OC)n2)cc1 | 7.74 |
| O=C(/C(=C/O)N=Nc1ccccc1Cl)c1ccccc1 | 17.5 |
| COC(=O)C1=C(C)N(C)C(C)=C(C(=O)OC)C1c1ccc(F)c(Br)c1 | -2.09 |
| CCOC(=O)N1CCC(=NNC(=O)NC2CCCCC2)CC1 | 10 |
| CCCc1nnc(NC(=O)CCN2C(=O)c3ccccc3C2=O)s1 | 5.37 |
| CCc1ccc(OCCSc2nc3ccccc3n2CC(=O)O)cc1 | 3.37 |
| Cc1cccc(C)c1N1CCN(c2nc(N(C)C)oc(=O)c2C#N)CC1 | -12.2 |
| N#CCN1CCN(CC(=O)c2ccc(Br)cc2)CC1 | 21.5 |
| CCC(=O)NC(=S)Nc1ccccc1F | 17.7 |
